Read-outs that look alike come from different tables or passages of the source.
Test system: H1N1 virus (wsn/33)
Assay type: cell-based, Influenza A H1N1 wsn/33

COc1ccc2cc(C(CC(=O)O)CC(=O)O)ccc2c1 [Naproxen A]
Protection % (5 μM): 8 ± 1% | Protection % (25 μM): 54 ± 4%

COc1ccc2cc(-c3c(C(=O)O)cccc3C(=O)O)ccc2c1 [Naproxen c0]
Protection % (5 μM): 30 ± 3% | Protection % (25 μM): 77 ± 5%

— patent US20180028478A1, “ANTIVIRAL COMPOSITIONS DIRECTED AGAINST THE NUCLEOPROTEIN OF INFLUENZA VIRUSES” (priority 2011, published 2018)
